# Measurements: patent publication US11542275B2, “Substituted imidazolidin-2-one derivatives as PRMT5 inhibitors” (Aurigene Discovery Technologies Limited, priority 2018, dated 2023)
# Target: PRMT5/MEP50 Complex (Homo sapiens (Human), UniProt O14744)
# Assay: PRMT5 inhibition based on TR-FRET assay
# Format: biochemical
# Details: 32 nM PRMT5:MEP50 complex, 50 nM Histone-H4 peptide, 1 μM SAM, 90 minutes at room temperature
# Excerpt: Protein arginine methyltransferase 5 (PRMT5) is a type II arginine methyltransferase that catalyze mono- and symmetric demethylation on arginine residues of histone or non-histone proteins in presence of S-adenosylmethionine (AdoMet or SAM) a cofactor responsible for donating the methyl group. PRMT5 is reported to be overexpressed in several human cancers. To identify compounds that inhibit the PRMT5 and decrease its activity, a TR-FRET based assay has been established. Time-resolved fluorescence resonance energy transfer (TR-FRET) HTS assays are homogeneous proximity assays where the interaction of two dye-labeled binding partners is detected by the energy transfer between a donor and an acceptor dye, and the subsequent light emission by the acceptor dye. PRMT5 catalyzes Histone H4 peptide which is biotin tagged to the Lysine amino acid at carboxyl end, in presence of S-adenosyl-1-methionine (SAM) to methylate the peptide. The antibody specific to mono methylated H4 peptide (H4R3) with Ig conjugate binds to the methylated peptide, indirectly binding to the Europium lanthanide. SureLight Allophycocyanin-Streptavidin binds to the biotin tag of the peptide, therefore accepting the energy transferred from the Europium lanthanide. This energy transfer between Europium to SureLight Allophycocyanin is a direct measure of the activity/inhibition of the PRMT5 enzyme.
# Assay buffer: 20 mM BICINE (pH 7.6), 25 mM NaCl, 2 mM DTT, 0.01% Tween-20 and 0.01% BSA.
# The compound dilutions were prepared as 7.5% DMSO stock solutions in assay buffer. To 2 μL (7.5×) of test compound, 5 μL of PRMT5 enzyme prepared in assay buffer (Final concentration of 32 nM in 15 μL reaction volume) was added and allowed for 30 minutes pre-incubation time in a white polystyrene 384-well plate at room temperature. […] The plates were then read on Victor-3 with Excitation at 340 nm and Emissions collected at 615 and 665 nm in TR-FRET protocol. […]
row,IC50 [µM],SMILES
1,0.015,"O=C1N(Cc2ccc(C3CCOCC3)cn2)CCN1C[C@H](O)CNC1Cc2ccccc2C1 [Compound 89, (R)-1-(3-((2,3-dihydro-1H-inden-2-yl)amino)-2-hydroxypropyl)-3-((5-(tetrahydro-2H-pyran-4-yl)pyridin-2-yl)methyl)imidazolidin-2-one]"
2,0.197,"CC(=O)N1CCN(c2ccc(CN3CCN(CC(O)CN4Cc5ccccc5C4)C3=O)nc2)CC1 (stereo not drawn) [Compound 84, 1-((5-(4-acetylpiperazin-1-yl)pyridin-2-yl)methyl)-3-(2-hydroxy-3-(isoindolin-2-yl)propyl)imidazolidin-2-one]"

row,SMILES,IC50 [µM]
1,"O=C1N(Cc2ccc(N3C4CCC3COC4)cn2)CCN1CC(O)CNC1Cc2ccccc2C1 (stereo not drawn) [Compound 86, 1-((5-(3-oxa-8-azabicyclo[3.2.1]octan-8-yl)pyridin-2-yl)methyl)-3-(3-((2,3-dihydro-1H-inden-2-yl)amino)-2-hydroxypropyl)imidazolidin-2-one]",0.061
